Measured values from paper PMC4336329 (PLoS ONE, 2015).
Hit rate of the full screen: of about 310,000 compounds, about 14,000 (4.5%) showed an effect of 50% or more. Effects have a minus sign here. Some of the results follow.

The compounds below were run against human ether-à-go-go-related gene (hERG) potassium channel (human, UniProt Q12809) (assay: primary screen, population patch clamp on CHO cells stably expressing hERG).
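Further: peak tail current of the secondary pulse compared with the same well before compound.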

Sequence of human ether-à-go-go-related gene (hERG) potassium channel (Q12809 whole entry, looked up): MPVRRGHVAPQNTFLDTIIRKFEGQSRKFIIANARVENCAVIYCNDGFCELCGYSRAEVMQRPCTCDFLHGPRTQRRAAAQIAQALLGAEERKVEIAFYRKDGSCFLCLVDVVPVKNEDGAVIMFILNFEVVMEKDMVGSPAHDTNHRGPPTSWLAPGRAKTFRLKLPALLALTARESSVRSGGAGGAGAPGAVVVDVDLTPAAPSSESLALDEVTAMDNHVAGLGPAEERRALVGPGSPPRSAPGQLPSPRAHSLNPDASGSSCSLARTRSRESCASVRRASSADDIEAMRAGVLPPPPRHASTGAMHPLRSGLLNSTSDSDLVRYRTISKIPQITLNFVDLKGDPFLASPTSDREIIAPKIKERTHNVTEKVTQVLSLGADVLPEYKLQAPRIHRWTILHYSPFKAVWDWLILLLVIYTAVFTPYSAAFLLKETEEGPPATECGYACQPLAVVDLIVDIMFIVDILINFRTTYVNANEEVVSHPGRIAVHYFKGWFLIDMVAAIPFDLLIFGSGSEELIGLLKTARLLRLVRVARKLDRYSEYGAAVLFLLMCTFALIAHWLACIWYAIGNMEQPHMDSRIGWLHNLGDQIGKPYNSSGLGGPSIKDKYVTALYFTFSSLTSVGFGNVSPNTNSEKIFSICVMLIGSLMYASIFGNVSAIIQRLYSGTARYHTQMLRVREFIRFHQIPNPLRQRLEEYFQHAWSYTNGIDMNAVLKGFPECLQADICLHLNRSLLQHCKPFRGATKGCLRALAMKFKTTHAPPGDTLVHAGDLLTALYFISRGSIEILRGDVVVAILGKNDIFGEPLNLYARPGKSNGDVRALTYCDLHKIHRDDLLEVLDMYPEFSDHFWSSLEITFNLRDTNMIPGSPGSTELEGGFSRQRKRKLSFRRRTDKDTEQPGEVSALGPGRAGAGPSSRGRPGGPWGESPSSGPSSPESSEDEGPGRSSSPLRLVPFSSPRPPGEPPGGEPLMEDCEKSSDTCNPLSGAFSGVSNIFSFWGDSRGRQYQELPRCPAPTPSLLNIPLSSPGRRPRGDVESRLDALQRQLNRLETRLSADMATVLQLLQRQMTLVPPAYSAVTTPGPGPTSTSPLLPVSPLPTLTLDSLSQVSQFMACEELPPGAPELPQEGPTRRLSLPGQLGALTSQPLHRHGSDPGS

| SMILES | hERG current change (%, negative = inhibition) at 10uM |
| --- | --- |
| CN(C)c1ccc(/C=C2\SC(N3CCCCC3)=NC2=O)cc1 | -21.8% |
| Cn1c(=O)c(=O)n(C)c2cc(N3CCCCC3)c(NS(=O)(=O)c3ccc(Br)cc3)cc21 | -65.1% |
| CCCN(CCC)CCCNC(=O)c1cc2cc3ccc(Cl)cc3nc2o1 | -61% |
| COc1ccc(CCNC(=O)[C@H](C)NC(=O)N2CCn3c2nc2ccccc23)cc1OC | 13.1% |
| O=C(CN1C(=O)CC(c2ccccc2)S(=O)(=O)c2ccccc21)N1CCCCC1 (stereo not shown) | 8.44% |
| O=C(NCCN1C(=O)C2C3C=CC(C3)C2C1=O)Nc1ccccc1O (stereo not shown) | -6.92% |
| CN(C)c1cccc(C(=O)NCc2ccc3c(c2)OCO3)c1 | -32.6% |
| COc1ccc(/C=C2\SC(=S)N(NS(=O)(=O)c3ccccc3)C2=O)c(OC)c1 | -33.1% |
| O=C1CN(c2ccccc2Cl)C(=O)CN1c1ccccc1Cl | -9.65% |
| O=C(CN1C(=O)C2C3CC(C(Br)C3Br)C2C1=O)OCC(=O)c1cccc([N+](=O)[O-])c1 (stereo not shown) | 25.3% |
| O=C(Nc1cccnc1)c1cc(-c2cccs2)on1 | -16.1% |
| CCCOc1ccc(N2C(=O)CC(N(Cc3ccco3)C(=O)CC)C2=O)cc1 (stereo not shown) | -0.0593% |
| O=C(Nc1ccc(F)cc1)C(c1ccccc1)N1CCN(S(=O)(=O)c2ccc3ccccc3c2)CC1 (stereo not shown) | 7.46% |
| Cc1cc(C)c2nc(N(CCCN(C)C)C(=O)C3=COCCO3)sc2c1.Cl | -65.9% |
| Cc1ccccc1/C=N/Nc1ncnc2nc[nH]c12 | 5.82% |
| CC1CCC2C(=O)N(c3cccc(OS(=O)(=O)c4ccccc4)c3)C(=O)C2C1 (stereo not shown) | -24.9% |
| O=C(CCN1C(=O)/C(=C/c2ccccc2Cl)SC1=S)NCCc1ccc(O)cc1 | 13.9% |
| Cc1ccc(C(=O)COC(=O)CNC(=O)c2ccc(Br)o2)cc1[N+](=O)[O-] | 4.86% |
| Cc1ccc(NC(=O)COC(=O)CCC(=O)c2cccs2)cc1C | 8.49% |
| O=C(Nc1ccccc1)/C(=C/c1ccc(F)cc1)NC(=O)c1ccco1 | -2.63% |
| Cc1ccccc1OCCC(=O)Nc1ccccc1C(=O)N1CCCCC1 | -10.8% |
| Nc1nc(N)nc(-c2ccc(Oc3ccccc3)cc2)n1 | 15.6% |
| Cn1c(Cc2ccccc2)nnc1SCC(=O)Nc1ccccc1N1CCOCC1 | -1.63% |
| Cc1ccc(S(=O)(=O)Nn2c(C)nnc2-n2nc(C)cc2C)cc1 | -3.39% |
| Cc1cc(C)c(C)c(S(=O)(=O)NC(C(=O)NCCc2ccco2)C(C)C)c1C (stereo not shown) | -5.41% |
| N#CC1(P(=O)(c2ccccc2)c2ccccc2)CCCC1 | -46.1% |

| SMILES | hERG current change (%, negative = inhibition) at 10uM |
| --- | --- |
| N#CCc1nn2c(-c3ccccc3)ccnc2c1C#N | 4.28% |
| Cc1ccc(C)c(N(CC(=O)NCCc2ccccc2)C(=O)CCC(=O)Nc2ccccn2)c1 | -8.07% |
| N#CCSc1nnc(-c2ccc(S(=O)(=O)N3CCOCC3)cc2)n1CC1CCCO1 (stereo not shown) | 12.2% |
| COc1ccc(-n2cnnc2)cc1 | 5.2% |
| Cc1[nH]c2ccccc2c1CCC(N)=O | -13.2% |
| COc1ccc(Cl)cc1N(CC(=O)N(C)C)S(=O)(=O)c1ccc(C)c([N+](=O)[O-])c1 | -11% |
| COc1cccc(CN2CC(C(=O)NCCn3cccn3)CCC2=O)c1 (stereo not shown) | 27.9% |
| O=C(CNC(=O)c1ccccc1Cl)OCC(=O)N1CCc2ccccc21 | -10.5% |
| O=c1sc(/C=N/Nc2ccccc2)c(Cl)n1Cc1ccccc1 | 18.8% |
| CCOC(=O)N1CCN(CC(O)COCC2=CCC3CC2C3(C)C)CC1.O=C(O)C(=O)O (stereo not shown) | -27.4% |
| CCN(c1ccccc1)S(=O)(=O)c1cc(C(=O)Nc2cccc(Cl)c2)ccc1F | 19.5% |
| Cc1cc(C)c2c(NC(=S)NC(=O)c3ccccc3)n[nH]c2n1 | 18% |
| O=C(Cc1cccc2ccccc12)NNC(=O)Nc1ccc(Cl)cc1 | 7.23% |
| COc1ccc(C(CC(=O)O)NC(=O)c2cc3cc(Br)ccc3oc2=O)cc1OC (stereo not shown) | 28.8% |
| Cc1c(NC(=O)COC(=O)/C=C/c2ccccc2Br)c(=O)n(-c2ccccc2)n1C | -0.436% |
| CCCCOc1ccc(-c2ncc(C(=O)O)c(C)n2)cc1 | 17.3% |
| CCN(C(=O)CN1CCN(c2ccc(O)cc2)CC1)c1c(N)n(Cc2ccccc2)c(=O)[nH]c1=O | -37.3% |
| CCOC(=O)C1CCN(C(c2cccc(OC)c2)c2sc3nc(C)nn3c2O)CC1 (stereo not shown) | -22.1% |
| COc1cc(NC(=O)CSc2nnc3c(C)cc4cc(C)cc(C)c4n23)c(C(=O)O)cc1OC | 5.37% |
| CS(=O)(=O)N1c2ccccc2[C@]2([C@@]34C[C@H]5C(=O)N[C@@H](Cc6ccccc6)C(=O)N5[C@@H]3N(S(C)(=O)=O)c3ccccc34)C[C@H]3C(=O)N[C@@H](Cc4ccccc4)C(=O)N3[C@H]12 | 19.7% |
| O=C(CNC(=O)c1ccccc1)NCC(=O)OCc1ccccc1Cl | 21.1% |
| Cc1cc(C)n(-c2ncccc2[N+](=O)[O-])n1 | 12.4% |
| N#Cc1ccc(-c2ccc(OCC(O)Cn3nnc4ccccc43)cc2)cc1 (stereo not shown) | 0.164% |
| Oc1[nH]c2ccccc2c1C=NCC1CCCO1 (stereo not shown) | 13.2% |
| COCCN1C(=O)C(=O)/C(=C(/O)c2ccc(S(=O)(=O)N3CCOCC3)cc2)C1c1ccc(O)cc1 (stereo not shown) | 3.78% |
| O=C(CCc1ccccc1)N=C1SC2CS(=O)(=O)CC2N1Cc1ccc(F)cc1 (stereo not shown) | 21.7% |
